# The list shows a part of the results. Further columns of the screen follow, without active or inactive calls. Compounds called inactive in the main read-out are mostly missing here.
# Experiment: insulin promoter activators in MIN6 cells, imaging, high-content screening, mouse beta cells (AID 1625);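 note: total cells summed across four imaged fields per well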
# Settings: MIN6 insulin promoter-GFP reporter, measured here: cytotoxicity, nuclei count, at 5 µM
row,SMILES,cell count [cells]
1,COc1ccc(/C=C/C(=O)c2ccc[nH]2)cc1OC,371
2,O=c1c(Cl)c2oc3ccccc3nc-2c2ccccc12,1300
3,Cn1nc(-c2ccc(Cl)cc2)c2cc(C(=O)N3CCN(C(=O)c4ccco4)CC3)sc21,300
4,CN(C)CCCN1C(=O)c2cccc3c([N+](=O)[O-])ccc(c23)C1=O,224
5,Cc1cc(C)nc(SCSc2nc(C)cc(C)n2)n1,861
6,CCN(CC)CCCNC1=C(Cl)C(=O)c2ccccc2C1=O,320
7,NC[C@@H]1O[C@H](C23CC4CC(CC(C4)C2)C3)Cc2c1ccc(O)c2O,363
8,CCN(CC)c1ccc(-c2nn3c(-c4ccccc4OC)nnc3s2)cc1,421
9,Cc1cc(C)cc(NC(=O)/C=C/c2ccc([N+](=O)[O-])s2)c1,1090
10,S=c1nc(-c2ccco2)[nH][nH]1,243
11,Clc1ccc2oc(-c3ccccn3)nc2c1,1080
12,Cc1ccc(-c2nn(-c3ccccc3)cc2/C=N/NC(=O)c2ccc(Br)o2)cc1,206
13,Nc1ccc2c(c1)C(=O)C(=O)c1ccccc1-2,216
14,C=CCn1c(=NC(=O)c2cc(-c3cccs3)nc3ccccc23)sc2cc(S(N)(=O)=O)ccc21,1150
15,Cc1ccc(C(=O)COC(=O)C2C3C=CC(C3)C2C(=O)OCC(=O)c2ccc(C)c(C)c2)cc1C (centres undefined),413
16,NC1=NC[C@H](c2ccccc2)N1CCCCC1CCCCC1,351
17,COc1ccc(CNC(=O)c2cc3c(C)nc4ccccc4c3o2)c(OC)c1,491
18,O=C1C(Cl)=C(N2CCOCC2)C(=O)N1CCc1ccccc1,411
19,O=S(=O)(Nc1cc(Sc2cccc3cccnc23)c(O)c2ccccc12)c1ccc(F)cc1,142
20,CCOC(=O)c1c(NC(=O)C2c3ccccc3Oc3ccccc32)sc(C(=O)N(CC)CC)c1C,483
21,COc1ccc(C(=O)/C=C/C(=O)N(CC(=O)NC2CCCCC2)Cc2ccc(F)cc2)c(O)c1,442
22,COC(=O)C1=NN[C@H](C(=O)OC(C)(C)C)[C@H]1c1ccccc1,490
23,Fc1ccc(C2CC(c3ccco3)=NN2c2ccccc2)cc1 (centres undefined),1260
24,Cc1ccc(CN=Cc2[nH]c3ccc(Br)c(Cl)c3c2O)cc1,786
25,CCOc1ccc(S(=O)(=O)Nc2cccc(N(C)S(C)(=O)=O)c2)cc1,464
26,CN(C(=O)COc1ccccc1C(=O)NCCOc1ccccc1)c1ccccc1,397

row,SMILES,cell count [cells]
1,O=S(=O)(NCc1ccncc1)c1ccc(S(=O)(=O)NCC2CCCO2)cc1 (centres undefined),287
2,CN(NS(=O)(=O)c1ccc(Cl)cc1)c1ncc(C(F)(F)F)cc1Cl,370
3,CN1/C(=C\C(=S)NC(=O)c2ccccc2Cl)C(C)(C)c2ccccc21,361
4,CCN1/C(=C/c2ccc3cc(C)ccc3[n+]2CC)Sc2cc(C)ccc21,248
5,COc1ccc(C(=O)c2c(C)oc3ccc(O)c(CN4CCOCC4)c23)cc1,447
6,CC(=O)c1cccc(NS(=O)(=O)c2ccc(N/C=C/C(=O)c3ccc(F)cc3)cc2)c1,499
7,CC1(C)Cc2c(c(-c3ccccc3)[nH]c(=O)c2C#N)CO1,1360
8,Oc1c(CN2CCN(c3ccccc3)CC2)cc(Br)c2cccnc12,350
9,CCCn1c(NC(=O)c2ccc(Cl)c(S(=O)(=O)N3CCCC3)c2)nc2ccccc21,396
10,O=C(Cn1ncc(Cl)c(Cl)c1=O)NCC1CCCCC1,269
11,CN(CC(=O)NCCc1ccccc1)S(=O)(=O)c1cccc2nsnc12,492
12,COc1ccc(-c2nn(-c3ccccc3)cc2/C=N/NC(=O)c2ccc(Br)o2)cc1,232
13,COc1cc(NS(=O)(=O)c2ccc(C)cc2)c2ncccc2c1,424
14,COCCNc1nc2c(c(=O)n(C)c(=O)n2C)n1Cc1cccc(C(F)(F)F)c1,478
15,CCOC(=O)/C(=C/C=C1\Sc2cc(OCC)c(OCC)cc2N1CC)C(C)=O,1080
16,CCCCCCCCn1c2c(c(=N)c3ccccc31)CCC2,220
17,COCc1cc(C)nc(Nc2ccccc2C)c1C#N,1150
18,CCN1CCN(c2cc(-c3ccccc3)nc3cc(-c4cccc(F)c4)nn23)CC1,376
19,CCN(CC)c1ccc(/C=C2/SC(=O)N(C(C)C)C2=O)o1,1220
20,O=C(CNC(=O)C1CCCCC1)Nc1cc(Cl)ccc1Cl,485
21,COc1cc(N2CCCC2)c(OC)cc1/C=C(/C#N)c1cccc(Br)c1,1010
22,O=C(OCCN1C(=O)c2cccc3c(N4CCOCC4)ccc(c23)C1=O)c1ccc(Cl)cc1Cl,795
23,Cn1cc(/C=C2\SC(=S)N(NC(=O)c3ccccc3)C2=O)c2ccccc21,1450
24,CC1=NNC(=O)C1CCC(=O)N/N=C/c1ccc(C)cc1 (centres undefined),1160
25,Cc1ccc(-n2c(C)cc(C(=O)COC(=O)c3c(C)noc3C)c2C)cc1,477
26,CC(=O)N1CCN(Cc2nc3cc(NC(=O)c4ccccc4)ccc3n2C)CC1,1510

row,SMILES,cell count [cells]
1,Cc1ccc(C2CC(=O)NC(SCc3ccccc3)=C2C#N)o1 (centres undefined),966
2,COc1cccc(OCCOCCOc2ccc(C)cc2[N+](=O)[O-])c1,396
3,Cc1ccc(-c2cn(-c3ccc(OC(F)F)cc3)c3[n+]2CCCCC3)cc1,205
4,CC(C)OC(=O)CN1C(=O)S/C(=C/c2ccc(N3CCCCC3)o2)C1=O,887
5,c1ccc(-c2nnc(-c3ccccn3)nc2NC2CCCCC2)cc1,137
6,CC(=S)/C=C1\Sc2ccccc2N1C,473
7,CCOC(=O)c1cnc(-n2nc(C)cc2C)nc1Nc1ccc(N(C)C)cc1,342
8,CCOC(=O)c1c(CSc2nc(C)cc(C)c2C#N)n(C)c2cc(Br)c(OC(C)=O)cc12,371
9,CC(C)n1c(-c2ccco2)csc1=Nc1cccnc1,477
10,COc1ccc(C[C@H]2CN3C(=NC[C@@H]3Cc3ccc(O)cc3)N2C[C@H](C)NC(=O)c2ccc(C)c(Br)c2)cc1,347
11,COc1ccc(NC(=O)C2Cc3ccccc3CN2C(=O)c2ccccc2)cn1 (centres undefined),456
12,CC(=O)c1sc2nc(-c3cccs3)cc(C(F)(F)F)c2c1N,1320
13,CC(=O)Nc1cccc(C(=O)/C=C/c2ccc(N(C)C)cc2)c1,1240
14,CC(CCc1ccco1)NC(=O)c1cc2c(-c3ccccc3F)nn(C)c2s1 (centres undefined),364
15,CC(C)n1c(NCc2cc(Cl)ccc2O)nc2ccccc21,342
16,CC1=C([N+](=O)[O-])C(c2cccc(Br)c2)C2=C(N1)c1ccccc1C2=O (centres undefined),456
17,CC(=O)c1c(C)[nH]c(C(=O)Nc2ccc(C)cn2)c1C,375
18,CC(C)(C)C(C(Oc1ccc(Cl)cc1)n1cncn1)n1nnnc1C(c1cccc(Cl)c1)N1CCCCC1 (centres undefined),395
19,Oc1ccc(CN2CCN(c3ccccc3)CC2)c2cccnc12,465
20,CC(C)N1CC=C2C(C#N)=C(N)C(C#N)(C#N)C(c3ccccc3)C2C1 (centres undefined),1180
21,CC(C)(C)CC(C)(C)NC(=S)Nc1ccc2nc(-c3ccccn3)c(-c3ccccn3)nc2c1,392
22,CCCN1C(=O)/C(=C/c2c(N3CCNC(=O)C3CC(=O)OCC)nc3c(C)cccn3c2=O)SC1=S (centres undefined),1010
23,CC1c2[nH]c3ccccc3c2CCN1C(=O)Nc1ccccc1 (centres undefined),492
24,COc1ccc(C(=O)/C=C/C(=O)N(CC(=O)NC2CCCCC2)Cc2cccs2)c(O)c1,358
25,Cn1c(SCC(=O)N2CCCc3ccccc32)nc2ccccc2c1=O,445
26,CCOC(=O)Cn1c(=O)c(-c2cc(Br)ccc2N)nc2ccccc21,563

row,SMILES,cell count [cells]
1,Cc1cc(C)c(/C=N/n2c(C)cc(C)c(C#N)c2=O)c(C)c1,312
2,CCOCCCNc1nc2c(C)cccn2c(=O)c1/C=C1\SC(=S)N(CC(C)C)C1=O,932
3,CCOC(=O)C1=C(C)NC(=O)NC1c1ccc(N2CCC(c3ccccc3)=N2)cc1 (centres undefined),1280
4,NCCNc1ccc([N+](=O)[O-])c(NC2CC2)c1,491
5,Nc1c(C(=O)c2cccs2)sc2nsc(SCCN3CCCCC3)c12,1080
6,CC1CCN(S(=O)(=O)c2ccc3c(c2)C(=NO)c2cc(S(=O)(=O)N4CCC(C)CC4)ccc2-3)CC1,263
7,O=C(Nc1ccc2c(c1)nc1n2CCCCC1)c1cc(S(=O)(=O)N2CCOCC2)ccc1Cl,265
8,Cc1c(C(=O)NC(C)C)c(-c2ccccc2)nn1-c1ccccc1,364
9,CCN(CC)c1ccc(/C=C/c2cc(-c3ccccc3)c3ccccc3n2)cc1,1240
10,Cc1c2ccccc2nc2c(F)c(NC(C)C)c(F)c(F)c12,1320
11,O=C(C1=C[C@H](C2CC2)C[C@H](OCCCCO)O1)N1CCN(Cc2ccccc2)CC1,1480
12,CCCSc1nc2sc3c(c2c(=O)[nH]1)CCN(Cc1ccccc1)C3,1750
13,Cc1ccc2[nH]c3c(N4CCc5ccccc5C4)ncnc3c2c1,419
14,CC1CC2(C)Oc3ccccc3CC2C(C)C1CNCCCN(C)C (centres undefined),376
15,N#Cc1ccc(CSc2nnc(NC(=O)c3ccc4ncsc4c3)s2)cc1,1380
16,CCOc1ccc(-n2c(SCC(=O)NC(C)CC)nc3n[nH]c(C)c3c2=N)cc1 (centres undefined),1020
17,CCCOc1nc2c(c(=O)n(C)c(=O)n2C)n1Cc1cccc2ccccc12,341
18,COCCNC(=O)Cc1ccc(F)cc1,1300
19,CCN1CC=C2C(C#N)=C(N)C(C#N)(C#N)C(c3cc(Cl)ccc3Cl)C2C1 (centres undefined),1200
20,COc1ccc(CN2C(=O)/C(=C/c3ccc(-c4ccc(Cl)c(C(=O)O)c4)o3)SC2=S)cc1,1070
21,CC/C(=N\NC(=O)CCC(=O)NCc1ccccc1)c1ccc(O)cc1,476
22,COc1ccccc1NC(=O)N1CCN(c2cc(-c3ccccc3)nc3ncnn23)CC1,193
23,CC(C)(C)C(=O)Cn1ncc(Cl)c(Cl)c1=O,234
24,COc1ccc(-c2cc(C(F)(F)F)n3nc(C(=O)N4CCCCC4)cc3n2)cc1OC,461
25,COc1ccc(/C=N/NC(=O)c2ccc(COCC(F)(F)C(F)F)cc2)cc1,434
26,COc1cc(N2CCCC2)c(OC)cc1/C=C(/C#N)c1cccc(F)c1,619
